Test results from the supplement of paper PMC12217912.
The other results are listed elsewhere or left out. Sequences were assembled here from the parent chain. Inactive controls read about 0.05.

B1: TEV protease; numbered along this chain (parent)
chain: MGESLFKGPRDYNPISSSICHLTNESDGHTTSLYGIGFGPFIITNKHLFRRNNGTLVVQSLHGVFKVKDTTTLQQHLVDGRDMIIIRMPKDFPPFPQKLKFREPQREERICLVTTNFQTKSMSSMVSDTSCTFPSGDGIFWKHWIQTKDGQCGSPLVSTRDGFIVGIHSASNFTNTNNYFTSVPKNFMELLTNQEAQQWVSGWRLNADSVLWGGHKVFMVKPEEPFQPVKEATQL

Variants of: B1
Experiment: raw area under fraction-flipped curve 0-4 h after induction (AUC4h, not background-subtracted), DNA-recorder readout of cleavage of the substrate (dimensionless); higher = more cleavage of the substrate by the protease variant
Settings: temperature: 34 °C; time window: 0-4 h after rhamnose induction
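Also: Bxb1 expression induced with 0.2% (w/v) L-rhamnose at OD600 near 0.5, cultures sampled hourly, flipped fraction per protease–substrate barcode pair counted by paired-end Illumina sequencing.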

Variant | area with substrate ENLYFQH | area with substrate ENLYFQN | area with substrate ENLYFQP | area with substrate ENLYFQR | area with substrate ENLYFQS | area with substrate ENLYFQT | area with substrate ENLYFQW | area with substrate ENLYFQY | area with substrate ENLYFQI | area with substrate ENLYFQK | area with substrate ENLYFQL | area with substrate ENLYFQM | area with substrate ENLYFQG | area with substrate ENLYFQV | area with substrate ENLYFQQ
K148F | 0.0749 | 0.0786 | 0.0616 | 0.0595 | 0.1 | 0.0425 | 0.0653 | 0.0941 |  |  |  |  |  |  | 
G136M | 0.109 | 0.104 |  | 0.0505 | 0.116 | 0.0714 | 0.0771 | 0.088 | 0.0604 | 0.0419 | 0.0366 | 0.0956 |  |  | 
G202L | 0.0549 | 0.0451 | 0.0585 | 0.0622 | 0.0642 |  | 0.0501 | 0.0511 |  | 0.0612 | 0.0665 | 0.0604 | 0.0676 |  | 
I42H | 0.0338 | 0.0388 | 0.0404 | 0.0543 | 0.0484 | 0.0537 | 0.0397 | 0.0485 |  | 0.0592 | 0.0421 |  |  | 0.036 | 
S182A |  |  |  | 0.0613 | 0.12 |  | 0.0671 |  |  | 0.0648 | 0.0637 |  |  | 0.0705 | 
R160H | 0.104 | 0.0848 |  |  | 0.111 | 0.0717 |  | 0.0736 | 0.0572 |  | 0.0691 |  |  |  | 
T132R | 0.0761 | 0.0437 |  |  | 0.0569 | 0.0561 |  |  | 0.004 |  | 0.0485 |  |  |  | 0.0206
Q97I |  | 0.0809 |  | 0.0355 | 0.0769 | 0.0678 |  | 0.061 |  |  | 0.0666 |  |  | 0.0601 | 
S154G |  | 0.0692 |  | 0.0604 | 0.0912 | 0.0614 | 0.0729 |  | 0.0571 | 0.0619 | 0.0493 | 0.0671 | 0.0873 | 0.049 | 
H143L |  | 0.0561 | 0.0433 | 0.0524 | 0.062 |  | 0.0446 | 0.0662 | 0.0533 | 0.0608 | 0.0514 | 0.0485 | 0.0617 |  | 0.0602
Q234H |  | 0.0909 | 0.0677 | 0.0593 | 0.106 | 0.0732 |  | 0.0815 | 0.0384 | 0.0653 | 0.0555 |  | 0.0671 |  | 
E108S | 0.0593 | 0.0618 |  | 0.0598 | 0.0678 | 0.0532 | 0.0476 |  |  | 0.052 | 0.0415 |  |  |  | 0.0485
